Tested on: S. aureus strain MW2
Test: Lytic assay (loss of optical density) and specific activity
Details: CF-301 4 μg/mL in phosphate buffer
Description: The effect of HuLYZ and HSA on PlySs2 (CF-301) activity was examined using additional formats. First, the time-kill assay was used to combine a sub-MIC amount of PlySs2 (CF-301) with a range of HuLYZ concentrations from 1-35 μg/mL (FIG. 8A). While HuLYZ alone has no anti-staphylococcal activity (21), the concentration in human blood is reported to vary between 1 and 35 μg/mL (22). At HuLYZ concentrations above 5 μg/mL a synergistic interaction was detected based on ≥2-log 10 CFU/mL reductions at 24 hours for the combinations compared to PlySs2 (CF-301) alone. In a second in vitro assay based on loss of optical density in a treated culture, the addition of both HuLYZ (FIG. 8B) and HSA (FIG. 8C) across a range of concentrations stimulated high-level PlySs2 (CF-301) activity. […] The lytic assay also serves as the basis for determining PlySs2 (CF-301) specific activity (4). […] If HuLYZ and HSA are added together, the fold increase in PlySs2 (CF-301) activity is 25%.
• Assay performed using a fixed concentration of CF-301 (4 μg/mL) in phosphate buffer, with the indicated supplements, against S. aureus strain MW2.
Lytic assays. Overnight cultures of MRSA strain MW2 were diluted 1:100 in BHI and grown for 2.5 hours at 37° C. with aeration. The exponential phase cells were washed, concentrated 10-fold in 20 mM phosphate buffer (pH 7.4), and split in equal aliquots to which either HSA (Albumin Biosciences) or human neutrophil-derived lysozyme (AVIVA Bioscience) over a range of concentrations was added. For each concentration of HSA or lysozyme, 0.1 mL of the mixture was aliquoted in duplicate to a 96-well, flat-bottom, non-tissue culture treated microtiter plates (BD). The lytic reaction was then started by adding to all wells 0.1 mL PlySs2 (CF-301) (in phosphate) to a final concentration of 4 μg/mL. Control wells were included with PlySs2 (CF-301), HSA, or HuLYZ alone at appropriate concentrations. Samples were mixed and optical density at 600 nm (OD600) was followed for 15 minutes at room temperature in a SpectraMax M5 Microplate Reader (Molecular Devices).
A variation of the lytic assay was performed to determine PlySs2 (CF-301) specific activity. Exponential phase MW2 cells were prepared as above and divided in 4 mL aliquots containing either phosphate buffer (reactions without agents added, with cells alone) or HSA (Albumin Biosciences) and/or human lysozyme (AVIVA Bioscience). The PlySs2 (CF-301) (starting at 0.5 mg/mL) was 2-fold serially diluted across columns 1 through 11 of a 96 well plate with 20 mM Phosphate pH 7.4 at a volume of 0.1 mL. Column 12 contained no enzyme, only buffer, and was used as assay control well. Bacterial cells mixed with either buffer, HSA, lysozyme or HSA combined with HuLYZ were added as 0.1 mL aliquots to each well of three rows of serially diluted PlySs2 (CF-301). Each plate was read at 600 nm for 15 minutes (shaking for 3 seconds between reads) at room temperature using a microplate reader as above. The specific activity in Units/mg of PlySs2 (CF-301) was determined based on the PlySs2 (CF-301) dilutions displaying curves just above and below the optical density that is 50% of the buffer control at 15 minutes.

B1: PlySs2 (CF-301): antistaphylococcal lysin from a Streptococcus suis prophage; N-terminal CHAP domain, C-terminal SH3-type binding domain; SEQ ID NO:3 (protein, listed as Streptococcus suis)
chain: MTTVNEALNNVRAQVGSGVSVGNGECYALASWYERMISPDATVGLGAGVGWVSGAIGDTISAKNIGSSYNWQANGWTVSTSGPFKAGQIVTLGATPGNPYGHVVIVEAVDGDRLTILEQNYGGKRYPVRNYYSAASYRQQVVHYITPPGTVAQSAPNLAGSRSYRETGTMTVTVDALNVRRAPNTSGEIVAVYKRGESFDYDTVIIDVNGYVWVSYIGGSGKRNYVATGATKDGKRFGNAWGTFK
Supplement HuLYZ, 10 μg/mL
  Specific Activity: 32066 Units/mg
Supplement rHSA, 4%
  Specific Activity: 43067 Units/mg
Supplements rHSA, HuLYZ
  Specific Activity: 18711 Units/mg
supplements: None
  Specific Activity: ~2500 Units/mg
supplements: None, listed as CF-301
  Specific Activity: 2419 Units/mg

Reference: patent US20220023399A1, “BLOOD COMPONENT POTENTIATION OF LYTIC PROTEIN ANTI-BACTERIAL ACTIVITY AND METHODS AND USES THEREOF” (priority 2017, published 2022)
